Test results published in the RNAGym collection of RNA variant scans (doi:10.7554/elife.90254).
Read counts are not given, so values of variants with three or more changes are uncertain.

B1: LINE1-mini (parent)
chain: GGCAGAGCUCAACACAGCGUGGCAAAGUGGCUGUGGCUAGACUGCC

Variants of: B1
Experiment: self-cleavage, relative activity (ratio to wild type); higher = more cleavage; in vitro, sequencing; the parent is a self-cleaving ribozyme

Variant	self-cleavage
G29A G30C C31U G36U	0.03
U28C G29U A39U C45U C46G	0.33
U28C G44U C45A	0.01
G29A C37U G40C	0.06
G29C C31G C37A	0.04
G27C C31A U38A A39U A41G C46U	0.17
G27U G35A G44C C46U	0.03
G29U G30A A39U C42A	0.02
U28G C31U C37U	0.03
U28C U34A G35U	0.03
G29U G30U C37G	0.04
G27C C31U C37A U38C	0.02
U28G C31U C37U A41U	0.05
G29C G30C U43A	0
U28G U38C C45U	0.25
U28G U38A G44C	0.18
G27C U38C C45U	0.1
G29A C31U G36U	0.03
G27U G33C G40A	0.02
G29U G35U A41G U43G	0.03
G29U G36C A41G C42G	0.12
G27A G30A G35C	0.17
U28A C37A C46A	0.08
G29U C31A C42A	0.14

Variant	self-cleavage
G29A G30A G33C G36A G44C	0.05
U28G G36C G44A	0.03
U28G C42A G44C	0.14
G29A G35A U38G	0.03
U28C C37U U38C C42G C45G	0.01
G27U A41G C42U	0.14
G27C G29A G30C	0.56
G27U U28C U38A	0.12
U28G A39U G44U	0.01
G29U G30U G44U	0.05
G29C C37U G40U	0.08
G27U G29U G33U	0.07
U28C C31A U34A	0.01
U28A G36A G40A	0.01
G27U G30U U34A	0.3
G27U G29U G44C	0.02
U28A C31U G36U C46A	0.04
U28C G40U C45G	0.12
G29C U38A C42A	0.01
U28C G30U A39U	0.42
G27U G33U C37A G44U C45A	0.05
G27C G35A A41U	0.06
G29A C31U U32A G36C G44C C45G	0.35
G27A G33U C45U	0.14

Variant	self-cleavage
G29C U38A G40U	0.05
G27A G30U C37G	0.02
G29C G36A A39U	0.04
G27U G35A G40C	0.06
U28A C37G U38G	0
G29U C31G C37U	0.06
U28G G30A G40U	0.02
G27A U28C G40C	0.08
U28G G29A C46U	0.12
G27A G33U G36A	0.07
G27C U34C C45A	0
G27C U38C C46G	0.14
U28C G40U U43A	0.09
U28A G36A A41C	0.02
U28G C37U A39G U43C	0.03
G27U G29U G30A A41C	0.08
U28C C31G G35U	0.05
U28G G29U C37G	0.04
G27C U32C G33U G40U	0.09
G29C G33C C42G	0.09
U28A U38G A39C	0
G27U G29A G30A	0.44
G29U G35A C37G	0.11
G27C G30U G35A	0.08

Variant	self-cleavage
U28G G35U C37G G44U	0.01
G29C G36U C46U	0.15
G27A G33C C37U G40A	0.1
G27U G29C C31G	0.16
G29U C37U C46A	0.01
G27C G40A C45U	0.11
G29C G33A G40U	0.06
G27C G40U G44A C46A	0.02
G27C G33U G40C G44A	0.04
U28C C31U C42A	1.68
G27C C37A C46G	0.02
G27A U38C A39G	0.4
U28A G30U C31A C37G	0.02
G27A G33U U38G	0.05
U28C U34A C46G	0.11
G27U G29C G36U	0.06
G27U A39U C45G	0.07
G27U G40C C42A	0.05
G29A G40A G44C C45G	0.16
G29A G33U U38A	0.04
U28A G33A U34G C42A	0.14
G27A G30A G44A	0.33
U28C G29C C37A G40A	0.01
G29U A39U C42A	0.3

Variant	self-cleavage
G27U G29A G36A	0.03
G29A G36A C42A	0.02
U28G G29U C31A	0.26
G29A G30U G40C	0.04
U28A A39G C46U	0.06
U28G C31U G36C	0.01
G27A U34A G35A	0.12
G27U C45G C46G	0.24
G27U A41U C45A C46A	0.06
U28A G29U G40U	0.09
U28A U32C U43G	0.05
G27U U28G G29A U32G	0.18
G27C G40U G44U	0.47
G29U G30C C37A	0.03
G29U C42G C46U	0.03
U28A U32C G33U	0.07
G29U G30U G33A G35U	0.13
G27C G30A G36U G40U	0.49
G29A G30U G36A	0.28
U28A G30U U38G A39C	0.07
G27C U28A U34C G40C	0.05
G27C G35U G40C	0.1
G29A U32G G40U	0.05
G27C U28A U34C	0.13

Variant	self-cleavage
G27C U28A U34G	0.19
G29U G33U G40U	0.04
G27U A41G C46U	0.38
U28C G40A C45U	0.02
G27U G40A C45U	0
G29A U34A C37G	0.04
U28A G29A G33A	0.31
G27C C31A A39G	0.03
G27U G44C C46U	0.03
G27U G33A G36A	0.05
G27A U34C A39G	0.03
U28A G30C G35C C37U	0.01
G27A G35A A39U	0.04
U28C G29U C31U U32C	0.03
U28G G35C A39U	0.07
U28A G30A U32A	0.61
U28G G29U G36A	0.14
G27C U28C G35C	0.2
G27A G35U G40C C45U	0
G27C U32C G33U G36A C37U G44U	0.02
G27U G29A C37U	0.02
G29U G35U A39U	0.03
G29U C31A G35A	0.06
G27U U38G U43A	0

Variant	self-cleavage
G27U C31U C42G	0.08
G27U U28C G33U	0.04
G29U G30A C42U	0.47
G27A G36U A39C	0.04
G27A G36U A39G A41U	0.01
U28C G36U A41G C46A	0.06
U28A G29A C37A	0.07
G27C G29C G30A	1.08
G27A U28A G36U	0.05
G29A G35A U38A A41G	0.14
G27A G29U U34G	0.16
G27U U34A C37A	0
G27U U28C G29A	1.01
U28G U34A G36C	0.03
G27U G36C C37A	0.07
G27U G29C U43A	0.01
G27C U43C C45A	0.04
G29A G30A C46U	0.28
G27A G40U C46U	0.11
G27C U34A C46A	0.09
U28A G29C C37U	0.04
U28G G36A U38C A39U	0.03
G29C G30U C31A	0.77
